Source: US20260201033A1 (LTZ THERAPEUTICS, published 2026)

Tests used:
[1] = target: T1, Human C-type lectin domain family 5 member A (CLEC5A), endogenous on human monocytes and M0 macrophages (human, UniProt Q9NY25 1-188); experiment: flow cytometry on human M0 macrophages, anti-human IgG PE
T1 construct: Endogenous CLEC5A on primary human monocytes and monocyte-derived M0 macrophages; also called MDL-1; M0 macrophages (CLEC5A+) cells
T1 sequence: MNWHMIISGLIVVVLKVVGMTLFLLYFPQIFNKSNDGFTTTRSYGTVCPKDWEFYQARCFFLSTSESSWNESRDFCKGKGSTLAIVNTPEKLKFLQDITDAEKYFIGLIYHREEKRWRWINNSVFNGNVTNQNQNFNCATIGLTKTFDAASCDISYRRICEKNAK

[2] = target: T2, Human CLEC5A His Tag protein (ACROBiosystems, Cat #: CLA-H5243) (human, UniProt Q9NY25 28-188, limits assumed); experiment: ELISA, plate coated with human CLEC5A
T2 construct: Bought protein with a His tag; also called recombinant human CLEC5A protein
T2 sequence: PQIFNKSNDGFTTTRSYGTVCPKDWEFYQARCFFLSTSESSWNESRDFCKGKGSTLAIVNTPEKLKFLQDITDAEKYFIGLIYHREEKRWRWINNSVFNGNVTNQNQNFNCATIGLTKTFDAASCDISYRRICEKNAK

EGFR on DLD-1 cells = EGFR on DLD-1 cells (UniProt P00533); experiment: cell-based or functional assay
[3] = target: T3, human EGFR (ACROBiosystems, Cat #: EGR-H5222) (human, UniProt P00533 part only); experiment: ELISA, plate coated with human EGFR
T3 construct: Bought protein; also called recombinant human EGFR protein

B1: EGFR1/5C7 (2+2 A) Fc-optimized (bispecific antibody, human IgG1, kappa)
heavy: QVQLVESGGGVVQPGRSLRLSCAASGFTFSTYGMHWVRQAPGKGLEWVAVIWDDGSYKYYGDSVKGRFTISRDNSKNTLYLQMNSLRAEDTAVYYCARDGITMVRGVMKDYFDYWGQGTLVTVSSASTKGPSVFPLAPSSKSTSGGTAALGCLVKDYFPEPVTVSWNSGALTSGVHTFPAVLQSSGLYSLSSVVTVPSSSLGTQTYICNVNHKPSNTKVDKKVEPKSCDKTHTCPPCPAPELLAGPSVFLFPPKPKDTLMISRTPEVTCVVVDVSHEDPEVKFNWYVDGVEVHNAKTKPREEQYNSTYRVVSVLTVLHQDWLNGKEYKCKVSNKALPLPEEKTISKAKGQPREPQVYTLPPSRDELTKNQVSLTCLVKGFYPSDIAVEWESNGQPENNYKTTPPVLDSDGSFFLYSKLTVDKSRWQQGNVFSCSVMHEALHNHYTQKSLSLSPGK
light: AIQLTQSPSSLSASVGDRVTITCRASQDISSALVWYQQKPGKAPKLLIYDASSLESGVPSRFSGSESGTDFTLTISSLQPEDFATYYCQQFNSYPLTFGGGTKVEIKRTVAAPSVFIFPPSDEQLKSGTASVVCLLNNFYPREAKVQWKVDNALQSGNSQESVTEQDSKDSTYSLSSTLTLSKADYEKHKVYACEVTHQGLSSPVTKSFNRGECGGGGSGGGGSGGGGSAIVMTQTPSSKSVPVGDTVTINCQASESVDRNNRLAWFQQKPGQPPKLLIYTTSTLASGVPSRFKGSGSGTHFTLTISDVVPDDAATYYCAGYRGAHTDGDAFGCGTEVVVKGGGGSGGGGSGGGGSGGGGSQSLEESGGDLVKPGASLTLTCTASGFSFSRSSYMCWVRQAPGKCLEWIGCLSVGDGHTYYASWAKGRFTISKTSSTSVTLQMTRLTAADTATYFCARAPSYSGDGGHGYDLWGPGTLVTVSS
notes: also called EGFR/CLEC5A (2+2 A) Fc-optimized antibody with EGFR portion of Amivantamab (EGFR1)
Question: How did the EC50 [1] turn out when B1 was run?
Answer: The EC50 was 19 nM.

Question: And the EC50 [2]?
Answer: Its EC50 is 0.072 µg/mL.

Question: What about the “IC50 (nM), DLD-1 cell killing by M0 macrophages” value (EGFR on DLD-1 cells) of the same binder?
Answer: The value was 0.00148 nM.

Question: And the EC50 [3]?
Answer: Its EC50 is 0.031 µg/mL.
